Where a name gives a salt, the structure may show the parent alone.
What follows are molecules tested against isolated recombinant JAK1 kinase domain (Homo sapiens (Human), UniProt P23458). Conditions: read-out: JAK1 Ki; isolated recombinant JAK1 kinase domain, 25 μM ATP.

Row | Compound | Ki [nM]
1 | CN1CCC(N(C)C(=O)c2ccc(Nc3nc4c(N5CCC(C)(c6ccccc6)CC5)cccn4n3)cc2)CC1 [Example 1-1, N-methyl-4-(8-(4-methyl-4-phenylpiperidin-1-yl)-[1,2,4]triazolo[1,5-a]pyridin-2-ylamino)-N-(1-methylpiperidin-4-yl)benzamide] | 16.7
2 | COC1(c2ccccc2)CCN(c2cccn3nc(Nc4ccc(C(=O)N(C)C5CCN(C)CC5)cc4)nc23)CC1 [Example 1-5, 4-[[8-(4-methoxy-4-phenyl-1-piperidyl)-[1,2,4]triazolo[1,5-a]pyridin-2-yl]amino]-N-methyl-N-(1-methyl-4-piperidyl)benzamide; hydrochloride] | 44.8
3 | CN1CCC(N(C)C(=O)c2ccc(Nc3nc4c(N5CCCC(O)(c6ccccc6)CC5)cccn4n3)cc2)CC1 (stereo not drawn) [Example 1-7, 4-[[8-(4-hydroxy-4-phenyl-azepan-1-yl)-[1,2,4]triazolo[1,5-a]pyridin-2-yl]amino]-N-methyl-N-(1-methyl-4-piperidyl)benzamide] | 62.1
4 | CN1CCC(N(C)C(=O)c2ccc(Nc3nc4c(N5CCC=C(c6ccccc6)CC5)cccn4n3)cc2)CC1 [Example 1-14, N-methyl-N-(1-methyl-4-piperidyl)-4-[[8-(4-phenyl-2,3,6,7-tetrahydroazepin-1-yl)-[1,2,4]triazolo[1,5-a]pyridin-2-yl]amino]benzamide] | 52.4
5 | CN1CCC(N(C)C(=O)c2ccc(Nc3nc4c(N5CC=C(c6ccccc6)CCC5)cccn4n3)cc2)CC1 [Example 1-15, N-methyl-N-(1-methyl-4-piperidyl)-4-[[8-(5-phenyl-2,3,4,7-tetrahydroazepin-1-yl)-[1,2,4]triazolo[1,5-a]pyridin-2-yl]amino]benzamide] | 187
6 | CN1CCC(N(C)C(=O)c2ccc(Nc3nc4c(N5CCC(O)(c6ccncc6)CC5)cccn4n3)cc2)CC1 [Example 1-20, 4-[[8-[4-hydroxy-4-(4-pyridyl)-1-piperidyl]-[1,2,4]triazolo[1,5-a]pyridin-2-yl]amino]-N-methyl-N-(1-methyl-4-piperidyl)benzamide] | 197
7 | CN1CCC(N(C)C(=O)c2ccc(Nc3nc4c(N5CCC(CC(N)=O)(c6ccccc6)CC5)cccn4n3)cc2)CC1 [Example 1-30, 4-[[8-[4-(2-amino-2-oxo-ethyl)-4-phenyl-1-piperidyl]-[1,2,4]triazolo[1,5-a]pyridin-2-yl]amino]-N-methyl-N-(1-methyl-4-piperidyl)benzamide] | 1.7
8 | CN1CCC(N(C)C(=O)c2ccc(Nc3nc4c(N5CCN(C(=O)N6CC(C)(C)C6)CC5)cccn4n3)cc2)CC1 [Example 1-34, 4-[[8-[4-(3,3-dimethylazetidine-1-carbonyl)piperazin-1-yl]-[1,2,4]triazolo[1,5-a]pyridin-2-yl]amino]-N-methyl-N-(1-methyl-4-piperidyl)benzamide] | 18.7
9 | CN1CCC(N(C)C(=O)c2ccc(Nc3nc4c(N5CCC(O)(c6ccccc6Cl)CC5)cccn4n3)cc2)CC1 [Example 1-35, 4-[[8-[4-(2-chlorophenyl)-4-hydroxy-1-piperidyl]-[1,2,4]triazolo[1,5-a]pyridin-2-yl]amino]-N-methyl-N-(1-methyl-4-piperidyl)benzamide] | 184
10 | CCc1ccc(C2(O)CCN(c3cccn4nc(Nc5ccc(C(=O)N(C)C6CCN(C)CC6)cc5)nc34)CC2)cc1 [Example 1-36, 4-[[8-[4-(4-ethylphenyl)-4-hydroxy-1-piperidyl]-[1,2,4]triazolo[1,5-a]pyridin-2-yl]amino]-N-methyl-N-(1-methyl-4-piperidyl)benzamide] | 7.35

Further lines, results first:

Row | Ki [nM] | Compound
11 | 74 | CN1CCC(N(C)C(=O)c2ccc(Nc3nc4c(N5CCC(O)(C6CCCCC6)CC5)cccn4n3)cc2)CC1 [Example 1-2, 4-[[8-(4-cyclohexyl-4-hydroxy-1-piperidyl)-[1,2,4]triazolo[1,5-a]pyridin-2-yl]amino]-N-methyl-N-(1-methyl-4-piperidyl)benzamide]
12 | 140 | COC1CCN(c2cccn3nc(Nc4ccc(C(=O)N(C)C5CCN(C)CC5)cc4)nc23)CC1 [Example 1-8, 4-[[8-(4-methoxy-1-piperidyl)-[1,2,4]triazolo[1,5-a]pyridin-2-yl]amino]-N-methyl-N-(1-methyl-4-piperidyl)benzamide]
13 | 185 | CN1CCC(N(C)C(=O)c2ccc(Nc3nc4c(N5CCC(F)(c6ccccc6)CC5)cccn4n3)cc2)CC1 [Example 1-16, 4-[[8-(4-fluoro-4-phenyl-1-piperidyl)-[1,2,4]triazolo[1,5-a]pyridin-2-yl]amino]-N-methyl-N-(1-methyl-4-piperidyl)benzamide]
14 | 87.9 | CN1CCC(N(C)C(=O)c2ccc(Nc3nc4c(N5CCC(O)(c6cccc(Cl)c6)CC5)cccn4n3)cc2)CC1 [Example 1-18, 4-[[8-[4-(3-chlorophenyl)-4-hydroxy-1-piperidyl]-[1,2,4]triazolo[1,5-a]pyridin-2-yl]amino]-N-methyl-N-(1-methyl-4-piperidyl)benzamide]
15 | 14.6 | CN1CCC(N(C)C(=O)c2ccc(Nc3nc4c(N5CCC(O)(c6ccc(C#N)cc6)CC5)cccn4n3)cc2)CC1 [Example 1-21, 4-[[8-[4-(4-cyanophenyl)-4-hydroxy-1-piperidyl]-[1,2,4]triazolo[1,5-a]pyridin-2-yl]amino]-N-methyl-N-(1-methyl-4-piperidyl)benzamide]
16 | 171 | CN1CCC(N(C)C(=O)c2ccc(Nc3nc4c(N5CCC(O)(c6cccc(C#N)c6)CC5)cccn4n3)cc2)CC1 [Example 1-22, 4-[[8-[4-(3-cyanophenyl)-4-hydroxy-1-piperidyl]-[1,2,4]triazolo[1,5-a]pyridin-2-yl]amino]-N-methyl-N-(1-methyl-4-piperidyl)benzamide]
17 | 11.1 | CN1CCC(N(C)C(=O)c2ccc(Nc3nc4c(N5CCC(OCC#N)CC5)cccn4n3)cc2)CC1 [Example 1-23, 4-[[8-[4-(cyanomethoxy)-1-piperidyl]-[1,2,4]triazolo[1,5-a]pyridin-2-yl]amino]-N-methyl-N-(1-methyl-4-piperidyl)benzamide]
18 | 157 | CN1CCC(N(C)C(=O)c2ccc(Nc3nc4c(N5CCC6(CNC(=O)O6)C5)cccn4n3)cc2)CC1 (stereo not drawn) [Example 1-24, N-methyl-N-(1-methyl-4-piperidyl)-4-[[8-(2-oxo-1-oxa-3,7-diazaspiro[4.4]nonan-7-yl)-[1,2,4]triazolo[1,5-a]pyridin-2-yl]amino]benzamide]
19 | 221 | CN1CCC(N(C)C(=O)c2ccc(Nc3nc4c(N5CCC6(CC5)CNC(=O)C6)cccn4n3)cc2)CC1 [Example 1-27, N-methyl-N-(1-methyl-4-piperidyl)-4-[[8-(3-oxo-2,8-diazaspiro[4.5]decan-8-yl)-[1,2,4]triazolo[1,5-a]pyridin-2-yl]amino]benzamide]
20 | 70.4 | CN1CCC(N(C)C(=O)c2ccc(Nc3nc4c(N5CCC6(CC5)CNC(=O)O6)cccn4n3)cc2)CC1 [Example 1-28, N-methyl-N-(1-methyl-4-piperidyl)-4-[[8-(2-oxo-1-oxa-3,8-diazaspiro[4.5]decan-8-yl)-[1,2,4]triazolo[1,5-a]pyridin-2-yl]amino]benzamide]
21 | 453 | CN1CCC(N(C)C(=O)c2ccc(Nc3nc4c(N5CCN6C(=O)NCCC6C5)cccn4n3)cc2)CC1 (stereo not drawn) [Example 1-31, N-methyl-N-(1-methyl-4-piperidyl)-4-[[8-(6-oxo-3,4,7,8,9,9a-hexahydro-1H-pyrazino[1,2-c]pyrimidin-2-yl)-[1,2,4]triazolo[1,5-a]pyridin-2-yl]amino]benzamide]
